Assay results as given in patent publication US5550119A, “Phosphono substituted tetrazole derivatives as ECE inhibitors” (Ciba-Geigy Corporation, priority 1995, dated 1996).
pIC50: −log10 of the molar value.

Test system: human ECE (recombinant ECE-1 and ECE-2)
Conditions: recombinant ECE-1 and ECE-2 from transfected CHO cells

## O=P(O)(O)CN[C@@H](Cc1ccc(-c2ccccc2)cc1)c1nnn[nH]1 [(S)-[2-(Biphenyl-4-yl)-1-(1H-tetrazol-5-yl)-ethylamino]-methylphosphonic acid]
  pIC50: ~7.00
